Source: patent publication US5312736, “Anticoagulant analogues of the tissue factor extrinsic pathway inhibitor (EPI) with reduced affinity for heparin” (Novo Nordisk A/S, dated 1994)

Target: tissue factor / factor VIIa complex (human, UniProt P08709)
Assay: cell-based or functional assay

B1: native extrinsic pathway inhibitor (EPI), entire EPI protein expressed from pCMVEPIhGH (other)
chain: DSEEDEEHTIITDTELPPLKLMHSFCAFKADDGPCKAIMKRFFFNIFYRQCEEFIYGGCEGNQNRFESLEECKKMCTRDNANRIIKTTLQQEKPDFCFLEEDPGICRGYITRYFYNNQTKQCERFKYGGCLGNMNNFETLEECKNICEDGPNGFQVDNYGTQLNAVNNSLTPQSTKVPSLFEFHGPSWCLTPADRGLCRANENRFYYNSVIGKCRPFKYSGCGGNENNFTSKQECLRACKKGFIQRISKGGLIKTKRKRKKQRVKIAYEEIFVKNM
In the case of B1, the “EPI activity [U/ml], chromogenic microplate assay (FVIIa/TF/FX, substrate S2222)” value is reported as 8.3 U/ml.
